Assay results taken from PubChem BioAssay AID624417 (National Center for Advancing Translational Sciences (NCATS), 2012).
The whole screen tested about 410,000 compounds, of which about 6,400 (1.6%) were called active. The shares of active, inactive and inconclusive entries below differ from those in the screen. The call rests on the fitted dose curve; in most records, active means well fitted inhibition curve with a large enough effect; inconclusive means small, poorly fitted or top-dose-only effect; inactive means no such curve, though single readings can be large or run the other way. Potencies of inconclusive entries are left out as doubtful fits.

These compounds were tested against Glucagon-like peptide 1 receptor (Homo sapiens) (UniProt P43220) (assay: qHTS of GLP-1 Receptor Inverse Agonists (Inhibition Mode)). Conditions: HEK293 GLP-1R CRE-luciferase, luminescence, 24 h, GLP-1R form is constitutively active; activity change, negative = inhibition: at 38.3 µM (top of the series) unless noted.
Summary of the method: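 Inverse agonism was detected as reduced cAMP-driven luciferase luminescence after 24 h compound treatment. The cells were HEK293 clones expressing constitutively active human GLP-1R with the reporter. Reporter-only and GPR119 cell lines served as counterscreen controls.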
Further: nearly all actives have a fitted effect of over 55% in size.
On the % scale 0 is the no-effect control and ±100 the full control effect; potency means the concentration at half of the fitted maximal effect; tags describe the fitted curve by direction and shape.

Chain of UniProt P43220 (P43220 whole entry, looked up): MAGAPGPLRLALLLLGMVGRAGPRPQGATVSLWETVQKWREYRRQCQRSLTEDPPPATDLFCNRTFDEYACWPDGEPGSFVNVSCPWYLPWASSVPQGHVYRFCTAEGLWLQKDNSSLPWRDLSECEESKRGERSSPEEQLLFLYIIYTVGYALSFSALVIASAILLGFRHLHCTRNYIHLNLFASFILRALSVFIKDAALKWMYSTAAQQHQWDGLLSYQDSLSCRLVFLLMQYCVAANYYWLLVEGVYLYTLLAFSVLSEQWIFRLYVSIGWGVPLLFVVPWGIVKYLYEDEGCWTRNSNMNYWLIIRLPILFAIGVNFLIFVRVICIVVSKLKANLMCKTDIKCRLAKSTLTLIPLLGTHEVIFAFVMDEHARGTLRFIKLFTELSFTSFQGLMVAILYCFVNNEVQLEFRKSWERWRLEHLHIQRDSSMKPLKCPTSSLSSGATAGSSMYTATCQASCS

Row | SMILES | activity change, negative = inhibition | Potency
1 | O=C(N/N=C/C=C/c1ccccc1)c1cccnc1 | inactive: 0.879% | –
2 | CC(C)c1ccc(-c2csc3ncnc(N4CCN(C)CC4)c23)cc1 | – | inconclusive [inhibitor, single point]
3 | Cc1cccc2c1cnn2C(=O)CCC(=O)N1CC(C)CC(C)C1 (centres undefined) | inactive: -8.74% | –
4 | Cc1ccc(NC(=O)CC2OC(=O)c3ccccc32)cc1S(=O)(=O)N1CCOCC1 (centres undefined) | inactive: 23.1% | –
5 | CN(C)Cc1c(O)ccc2occ(C(O)c3ccccc3)c12 (centres undefined) | – | inconclusive [inhibitor, single point]
6 | Cc1ccc(NC(=O)C2CCCN2C(=O)OCc2ccccc2)cc1C (centres undefined) | – | inconclusive [inhibitor, single point]
7 | Cc1c(C(=O)NCc2ccc(N(C)C)cc2)oc2c1-c1nn(Cc3cccc(Cl)c3)cc1CC2 | – | inconclusive [inhibitor, single point]
8 | C/C(=N\NC(=O)c1ccccc1)C1C2C=CC(C2)C1(C)C (centres undefined) | – | inconclusive [inhibitor, single point]
9 | CSc1nccc(-c2nn(-c3ccc(C)cc3)ccc2=O)n1 | – | inconclusive [inhibitor, full curve]
10 | CCOc1cc(/C=C(\C#N)c2nc(-c3cccs3)c(NC(C)=O)s2)ccc1O | – | inconclusive [inhibitor, partial curve, poor fit]
11 | COc1cccc(C=NNC(=O)c2ccncc2)c1O | – | inconclusive [inhibitor, single point]
12 | CCOc1ccc(NC(=O)CN(C)C(=O)c2ccccc2CCc2ccccc2)cc1OCC | – | inconclusive [inhibitor, partial curve, poor fit]
13 | COCCNC(=O)C1(C)CCCN(C(=O)c2ccccc2F)C1 (centres undefined) | inactive: 11.9% | –
14 | COc1cccc(NC(=O)CSc2nccn2-c2cccc(OC)c2)c1 | – | inconclusive [inhibitor, partial curve]
15 | CC(C)(C)C1CCC(C(=O)Nc2ccccc2N2CCOCC2)CC1 (centres undefined) | – | inconclusive [inhibitor, partial curve, poor fit]
16 | CNC(=O)NC(=S)NC(=O)c1cccc(Cl)c1 | inactive: 1.03% | –
17 | Cc1[nH]c2ccccc2c1SCc1ccccc1 | – | inconclusive [inhibitor, single point]
18 | O=C(CSc1cn(CC(=O)N2CCCCCC2)c2ccccc12)Nc1ccccc1F | – | inconclusive [inhibitor, single point]
19 | Cn1cc(CN2CCc3sccc3C2)c(-c2ccccc2F)n1 | inactive: 2.7% | –
20 | O=C(NC1CCCCCC1)c1nnc(Cc2ccc(Cl)cc2)o1 | – | inconclusive [inhibitor, single point]
21 | CCCn1c(NCc2ccccc2NS(=O)(=O)c2ccc(C)cc2)nc2ccccc21 | – | inconclusive [inhibitor, full curve]
22 | Cc1cccc(NC(=O)C(C)Sc2nc3ccccc3c(=O)n2CCCN2CCOCC2)c1 (centres undefined) | – | inconclusive [inhibitor, full curve, poor fit]

Row | SMILES | activity change, negative = inhibition | Potency
23 | Cn1nc(C(=O)NCc2ccccc2)cc1C(=O)NCc1ccccc1 | – | inconclusive [inhibitor, full curve]
24 | CC(NC(=O)OC(C)(C)C)C(=O)NC(CCC(=O)OCc1ccccc1)C(N)=O (centres undefined) | inactive: 22.9% [at 7.66 µM] | –
25 | Cc1cc(C(=O)CSc2nc(N)cc(=O)[nH]2)c(C)n1CC1CCCO1 (centres undefined) | inactive: 8.85% | –
26 | CC(=O)Oc1ccc(C2=NN(c3ccccc3)C(c3ccccc3)C2)cc1 (centres undefined) | – | inconclusive [inhibitor, single point]
27 | COc1ccc(N2CCN(C(CNS(=O)(=O)c3ccc4c(c3)OCCO4)c3ccco3)CC2)cc1 (centres undefined) | – | inconclusive [inhibitor, partial curve]
28 | COC(=O)c1scc(-c2ccc(C)cc2)c1S(=O)(=O)Nc1cccc(C(F)(F)F)c1 | – | inconclusive [inhibitor, partial curve, poor fit]
29 | O=C(CSC(=S)N1CCOCC1)c1cc2ccccc2oc1=O | – | inconclusive [inhibitor, single point]
30 | CC1(C(=O)Nc2cccc3c2CCCC3)CCN1C(=O)CCC1CCCC1 (centres undefined) | – | active: 11.2 µM
31 | Cc1ccccc1OCC(=O)NC(=S)Nc1cccc2cc(O)ccc12 | – | inconclusive [inhibitor, partial curve, poor fit]
32 | Cc1cc(C(=O)Nc2ncc(C)s2)c2ccccc2n1 | – | inconclusive [inhibitor, partial curve, poor fit]
33 | COc1ccccc1C(C)NCC(=O)NCc1ccc(C)cc1 (centres undefined) | inconclusive: -68.9% [inhibitor] | –
34 | Cc1ccc(C2(c3ccccc3)NC(=O)N(CC(=O)N3CC(=O)Nc4ccccc43)C2=O)cc1C (centres undefined) | – | inconclusive [inhibitor, partial curve, poor fit]
35 | O=CN(/C=C1\Sc2ccccc2C1=O)Cc1ccccc1 | – | inconclusive [inhibitor, full curve, poor fit]
36 | O=[N+]([O-])c1cc(Cl)ccc1NCCNS(=O)(=O)c1ccccc1 | – | inconclusive [inhibitor, partial curve, poor fit]
37 | CCOC(=O)C1(CCc2ccccc2)CCN(Cc2nccn2CC)CC1 | – | inconclusive [inhibitor, single point]
38 | O=C(Nc1ccc(O)cc1)c1cc2n(n1)C(C(F)(F)F)CC(c1ccco1)N2 (centres undefined) | – | inconclusive [inhibitor, full curve]
39 | COc1ccc(CC(=O)Nc2cccc(-c3nnc(-c4ccccc4)o3)c2)cc1OC | – | inconclusive [inhibitor, single point]
40 | COCCCNC(=S)N(Cc1ccccc1)Cc1ccc(F)cc1 | – | inconclusive [inhibitor, partial curve, poor fit]
41 | CCOC(=O)c1c(CSc2ccsc2)n(C)c2cc(Br)c(O)c(CN(C)C)c12 | – | inconclusive [inhibitor, partial curve, poor fit]
42 | Cc1c(CNC(=O)c2nn3c(c2Cl)NC(c2ccccc2)CC3C(F)(F)F)cnn1C (centres undefined) | – | inconclusive [inhibitor, partial curve, poor fit]
43 | CC(C)CC(=O)Nc1c(C(=O)N2CCN(c3ccccc3F)CC2)oc2ccccc12 | – | inconclusive [inhibitor, single point]
44 | Cc1cc(C)c2c(-n3cccc3)c(C(=O)NCCc3ccccc3)sc2n1 | inactive: 6.72% | –

Row | SMILES | activity change, negative = inhibition | Potency
45 | Cc1cc(=O)[nH]c(SCC(=O)NCc2ccc3c(c2)OCO3)n1 | – | inconclusive [inhibitor, full curve, poor fit]
46 | CC(=O)C1=C(O)C(=Cc2ccccc2)OC1=O | inactive: -20.3% | –
47 | CC(C(=O)Nc1ccccc1C(F)(F)F)n1nc(-c2ccccc2)c2c(c1=O)CCCC2 (centres undefined) | – | inconclusive [inhibitor, single point]
48 | COc1ccc(OC)c(C(O)c2ncc(-c3ccc(C(F)(F)F)cc3)[nH]2)c1 (centres undefined) | – | inconclusive [inhibitor, partial curve, poor fit]
49 | O=C(O)COc1ccccc1/C=N/NC(=O)CN1CCN(Cc2ccc(Cl)cc2)CC1 | inactive: -17.6% | –
50 | Cc1ccc2nc(NC(=O)c3cccs3)sc2c1 | – | inconclusive [inhibitor, single point]
51 | O=C(CCS(=O)(=O)c1ccccc1)N1CCN(c2cccc(C(F)(F)F)c2)CC1 | – | inconclusive [inhibitor, single point]
52 | O=C1CSC(c2cccc([N+](=O)[O-])c2)N1CCN1CCCCC1 (centres undefined) | inactive: 12.9% | –
53 | COc1ccc(CSc2nc3ccccc3[nH]2)cc1 | – | inconclusive [inhibitor, single point]
54 | CCn1c(C(=O)O)c(CC(=O)NC2CCCCCC2)c2ccccc21 | inactive: 11.9% | –
55 | COC(=O)C1=C(c2ccccc2)c2ccccc2S(=O)(=O)N1CC(=O)Nc1ccccc1C(F)(F)F | – | inconclusive [inhibitor, single point]
56 | O=C(Nc1nc(-c2ccco2)c(-c2ccco2)s1)c1c(F)cccc1Cl | – | inconclusive [inhibitor, partial curve, poor fit]
57 | CC(/C=N/NC(=O)c1cc(-c2cccn2C)n[nH]1)=C\c1ccccc1 | – | inconclusive [inhibitor, single point]
58 | COc1ccccc1N1CCN(C(=O)C2CCN(S(=O)(=O)c3ccccc3F)CC2)CC1 | – | inconclusive [inhibitor, single point]
59 | O=C(NN=Cc1ccccc1O)NN=Cc1ccccc1O | inactive: -23.4% | –
60 | C[C@@H]1ON(C)[C@H]2C[C@H]3c4[nH]c5ccc(-c6ccc7c(c6)OCO7)cc5c4CCN3C[C@@H]12 | – | inconclusive [inhibitor, single point]
61 | CCCCCCN1C[C@H](n2cc(C3CC3)nn2)[C@@H](O)C[C@@H]1c1ccccc1 | – | inconclusive [inhibitor, single point]
62 | CCOC(=O)N1CCC(N(C(=O)Nc2ccc(CC)cc2)C(C)CC)CC1 (centres undefined) | – | inconclusive [inhibitor, partial curve, poor fit]
63 | C=CC[C@@H](CC(=O)OC(C)(C)C)C(=O)OC[C@@H]1CCCN1C(=O)[C@@H](CC=C)CC(=O)N(CCO)Cc1ccccc1 | – | inconclusive [inhibitor, partial curve, poor fit]
64 | COc1ccc(-c2csc(N(Cc3ccco3)C(=O)c3cccs3)n2)cc1 | – | inconclusive [inhibitor, partial curve, poor fit]
